# This list was built around the results that the source calls inconclusive (neither active nor inactive); the mix of calls is not that of the screen. A potency beside an inconclusive call is a rough fit, not a confirmed value. “Side channel” marks fits to a control or component signal instead of the main read-out. Activity calls are given as the source filed them. Calls follow the shape of the dose curve; as a rule, active = well fitted inhibition curve with a large enough effect in the polarisation, with a control signal flat (not every such curve was filed as active); inconclusive = small, poorly fitted or top-dose-only effect, or effect the other way, or a change in a side signal; inactive = no such curve, though single readings can be large or run the other way; the % refers to the polarisation.
# Test: Confirmation of Inhibitors Targeting the Menin-MLL Interaction in MLL Related Leukemias: Competition With Texas Red Labeled MLL-derived Mutant Peptide
# Details: fluorescence polarization, Texas Red MLL peptide displacement; FP change, negative = inhibition: at 94.6 µM (top of the series) unless noted
# Procedure, shortened: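 Hits from the primary screen were retested: compounds were incubated 1 hr at ambient with 200 nM menin, 50 nM Texas Red mutant peptide and 25 nM fluorescein wild-type peptide (Tris pH 7.5, BSA-supplemented buffer), then fluorescence polarization was read.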
# % is scaled to controls: 0 for no effect and ±100 for the full control effect; potency is read from the fitted curve at half-maximal effect; tags tell the direction and shape of the fitted curve or compound fluorescence and quenching.
SMILES,"FP change, negative = inhibition",Potency
COC(CSc1nc(N)c2c3c(sc2n1)CN(C)CC3)OC,inconclusive: -32.1% [inhibitor] [at 288 µM],
CCOC(=O)C1CCN(CC(O)COCc2ccccc2)CC1 (centres undefined),inactive: -20% [at 288 µM],
Oc1ccc2ccccc2c1N=Nc1nccs1,,"inconclusive: 89.1 µM [quencher, side channel, full curve]"
CC1(C)CN=C(N2CCN(c3ncnc4sc5c(c34)CCCC5)CC2)S1,,active: 14.2 µM
c1ccc2c(c1)NCC1CCCN21 (centres undefined),,"inconclusive: 79.6 µM [inhibitor, partial curve]"
COc1ccc(NC2=C(NCCO)C(=O)c3ccccc3C2=O)cc1,,"inconclusive: 126 µM [inhibitor, partial curve]"
COc1ccccc1CC(=O)Nc1ccc(-c2noc(COc3ccc(Br)cc3)n2)cc1,,active: 71 µM
O=C(CS)Nc1ccc2ccccc2c1,,"inconclusive: 158 µM [quencher, side channel, partial curve]"
c1ccc(-c2ccc(-c3csnn3)cc2)cc1,,"inconclusive: 89.1 µM [fluorescent, side channel, full curve]"
NS(=O)(=O)c1ccc(NC(=O)c2ccc(-c3ccccc3)cc2)cc1,,"inconclusive: 44.7 µM [fluorescent, side channel, full curve]"
O=c1c2ccccc2nc(N/N=C/c2c(O)ccc3ccccc23)n1O,,"inconclusive: 79.4 µM [quencher, side channel, full curve]"
Cn1c(=O)[nH]c(=O)c2c1nc(Br)n2CCSc1nc2ccccc2o1,inactive: -7.1% [at 288 µM],
O=C(Nc1cc(Br)ccc1O)c1cc(-c2ccco2)on1,,"inconclusive: 22.4 µM [inhibitor, full curve]"
C/C(=N\Nc1ccc(Cl)c(C(=O)O)c1)c1ccc[nH]1,,"inconclusive: 251 µM [inhibitor, partial curve, poor fit]"
COc1ccc(OCCCn2ccnc2)cc1,inactive: -7.95%,
O=C(O)/C(=C\c1ccc(F)cc1)c1ccc(-c2ccccc2)cc1,,"inconclusive: 158 µM [quencher, side channel, partial curve]"
O=C1NC(=S)N/C1=C/c1ccc2ccccc2c1,inactive: 40.9% [at 288 µM],

SMILES,"FP change, negative = inhibition",Potency
CCNc1ccccc1CP(=O)(c1ccccc1)c1ccccc1O (centres undefined),,"inconclusive: 158 µM [inhibitor, partial curve, poor fit]"
Cc1cc(N2CCOCC2)nc2ccc(Cl)cc12,inactive: 1.95%,
O=C(CN1C(=O)/C(=C/c2cccc(Br)c2)SC1=S)NC1=NCCS1,,active: 17.8 µM
CCOC(=O)N1CCN(CCC(=O)c2ccc(Br)cc2)CC1,inactive: 3.33%,
Cc1ccccc1CN1CCN(C(C)C(=O)NCc2ccccc2)CC1 (centres undefined),,"inconclusive: 126 µM [inhibitor, partial curve, poor fit]"
O=C(Cn1nc(-c2ccccc2)ccc1=O)N1CCCCC1,inactive: -9.46% [at 288 µM],
CCCCCC1CCC(C(=O)NCCN2CCOCC2)CC1 (centres undefined),inactive: 17.5%,
CCc1cc2c(N3CCN(C(=O)c4ccco4)CC3)ncnc2s1,,active: 35.5 µM
CCC[n+]1c2ccccc2cc2ccccc21,,active: 31.7 µM
Cc1ccc(/C=C2\SC(=S)N(CC(=O)Nc3ncc(Cc4ccccc4Cl)s3)C2=O)cc1,,"inconclusive: 20 µM [inhibitor, full curve]"
Cc1cc2ncn(-c3ncnc4sc5c(c34)CCC(C)C5)c2cc1C (centres undefined),,"inconclusive: 31.6 µM [fluorescent, side channel, full curve]"
CCOc1ccc2c(c1)C(NC(C)=O)C(=O)N2CCN1CCOCC1 (centres undefined),,"inconclusive: 79.6 µM [inhibitor, single point]"
COc1ccccc1NS(=O)(=O)c1cc(NC(=O)Nc2ccc(Cl)cc2Cl)ccc1N1CCCCC1,,"inconclusive: 31.7 µM [fluorescent, side channel, partial curve]"
Clc1ccc(-c2nnc(-c3ccccc3)nc2-c2c[nH]c3ccccc23)cc1,,"inconclusive: 22.4 µM [inhibitor, full curve]"
O=[N+]([O-])CC(c1ccccc1)P(=O)(c1ccccc1)c1ccccc1 (centres undefined),inactive: 24.1%,
CC(Sc1nnc(Nc2ccccc2)s1)C(=O)Nc1nc(-c2ccccc2)cs1 (centres undefined),,"inconclusive: 71 µM [fluorescent, side channel, partial curve]"
O=C(Nc1cc(Br)ccc1O)c1cc(-c2ccccc2)on1,,active: 20 µM

# Source: PubChem BioAssay AID2782 (National Center for Advancing Translational Sciences (NCATS), 2010)
